Substitutions are numbered along the chain they refer to; changes in the protein carry UniProt numbers. Some of the results follow.
T1: RBFOX1 RRM RbFoxmut (Fox-RRM*) (Homo sapiens, UniProt Q9NWB1 109-208, R118D;E147R;N151S;E152T)
T1 sequence: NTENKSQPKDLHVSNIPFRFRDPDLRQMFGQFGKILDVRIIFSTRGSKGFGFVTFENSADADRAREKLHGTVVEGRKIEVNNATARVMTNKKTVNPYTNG

B1: AAGAUGG (DNA:RNA)
RNA: GGGAGACCGGAAUUCAGAUUGUCCAAGAUGGUUAAAUCCCGUCGUAGCCACCA
DNA 1: CAATCTGAATTCCGGTCTCCC
DNA 2: TGGTGGCTACGACGGGATT
B2: GUGUAUU (DNA:RNA)
RNA: B1 RNA with A25G, A26U, A28U, U29A, G30U, G31U
DNA 1: CAATCTGAATTCCGGTCTCCC
DNA 2: TGGTGGCTACGACGGGATT
B3: GCCAUUA (DNA:RNA)
RNA: B1 RNA with A25G, A26C, G27C, G30U, G31A
DNA 1: CAATCTGAATTCCGGTCTCCC
DNA 2: TGGTGGCTACGACGGGATT
B4: AGGAGCU (DNA:RNA)
RNA: B1 RNA with A26G, U29G, G30C, G31U
DNA 1: CAATCTGAATTCCGGTCTCCC
DNA 2: TGGTGGCTACGACGGGATT
B5: ACGCAGG (DNA:RNA)
RNA: B1 RNA with A26C, A28C, U29A
DNA 1: CAATCTGAATTCCGGTCTCCC
DNA 2: TGGTGGCTACGACGGGATT
B6: UAUGACA (DNA:RNA)
RNA: B1 RNA with A25U, G27U, A28G, U29A, G30C, G31A
DNA 1: CAATCTGAATTCCGGTCTCCC
DNA 2: TGGTGGCTACGACGGGATT
B7: UGAAUCG (DNA:RNA)
RNA: B1 RNA with A25U, A26G, G27A, G30C
DNA 1: CAATCTGAATTCCGGTCTCCC
DNA 2: TGGTGGCTACGACGGGATT
B8: CAGGUGC (DNA:RNA)
RNA: B1 RNA with A25C, A28G, G31C
DNA 1: CAATCTGAATTCCGGTCTCCC
DNA 2: TGGTGGCTACGACGGGATT
B9: GGGUGCG (DNA:RNA)
RNA: B1 RNA with A25G, A26G, A28U, U29G, G30C
DNA 1: CAATCTGAATTCCGGTCTCCC
DNA 2: TGGTGGCTACGACGGGATT
B10: UCCCGUU (DNA:RNA)
RNA: GGGAGACCGGAAUUCAGAUUGUCCUCCCGUUUUAAAUCCCGUCGUAGCCACCA
DNA 1: CAATCTGAATTCCGGTCTCCC
DNA 2: TGGTGGCTACGACGGGATT
B11: UGACAGG (DNA:RNA)
RNA: B1 RNA with A25U, A26G, G27A, A28C, U29A
DNA 1: CAATCTGAATTCCGGTCTCCC
DNA 2: TGGTGGCTACGACGGGATT
B12: UAUUGCC (DNA:RNA)
RNA: B10 RNA with C26A, C27U, C28U, U30C, U31C
DNA 1: CAATCTGAATTCCGGTCTCCC
DNA 2: TGGTGGCTACGACGGGATT
B13: AAUCCUG (DNA:RNA)
RNA: B1 RNA with G27U, A28C, U29C, G30U
DNA 1: CAATCTGAATTCCGGTCTCCC
DNA 2: TGGTGGCTACGACGGGATT
B14: UGUUUUG (DNA:RNA)
RNA: B1 RNA with A25U, A26G, G27U, A28U, G30U
DNA 1: CAATCTGAATTCCGGTCTCCC
DNA 2: TGGTGGCTACGACGGGATT
B15: UGUGCCC (DNA:RNA)
RNA: B10 RNA with C26G, C27U, C28G, G29C, U30C, U31C
DNA 1: CAATCTGAATTCCGGTCTCCC
DNA 2: TGGTGGCTACGACGGGATT
B16: CAGAUAU (DNA:RNA)
RNA: B1 RNA with A25C, G30A, G31U
DNA 1: CAATCTGAATTCCGGTCTCCC
DNA 2: TGGTGGCTACGACGGGATT
B17: GGCCAGA (DNA:RNA)
RNA: B10 RNA with U25G, C26G, G29A, U30G, U31A
DNA 1: CAATCTGAATTCCGGTCTCCC
DNA 2: TGGTGGCTACGACGGGATT
B18: GCUGGGC (DNA:RNA)
RNA: B10 RNA with U25G, C27U, C28G, U30G, U31C
DNA 1: CAATCTGAATTCCGGTCTCCC
DNA 2: TGGTGGCTACGACGGGATT
B19: AGUCGGG (DNA:RNA)
RNA: B1 RNA with A26G, G27U, A28C, U29G
DNA 1: CAATCTGAATTCCGGTCTCCC
DNA 2: TGGTGGCTACGACGGGATT
B20: ACGAGAC (DNA:RNA)
RNA: B1 RNA with A26C, U29G, G30A, G31C
DNA 1: CAATCTGAATTCCGGTCTCCC
DNA 2: TGGTGGCTACGACGGGATT
B21: GACCGAA (DNA:RNA)
RNA: B10 RNA with U25G, C26A, U30A, U31A
DNA 1: CAATCTGAATTCCGGTCTCCC
DNA 2: TGGTGGCTACGACGGGATT
B22: CAGAAUC (DNA:RNA)
RNA: B1 RNA with A25C, U29A, G30U, G31C
DNA 1: CAATCTGAATTCCGGTCTCCC
DNA 2: TGGTGGCTACGACGGGATT
B23: UCCGCAU (DNA:RNA)
RNA: B10 RNA with C28G, G29C, U30A
DNA 1: CAATCTGAATTCCGGTCTCCC
DNA 2: TGGTGGCTACGACGGGATT
B24: CGGUGUG (DNA:RNA)
RNA: B1 RNA with A25C, A26G, A28U, U29G, G30U
DNA 1: CAATCTGAATTCCGGTCTCCC
DNA 2: TGGTGGCTACGACGGGATT
B25: UGUCCGA (DNA:RNA)
RNA: B10 RNA with C26G, C27U, G29C, U30G, U31A
DNA 1: CAATCTGAATTCCGGTCTCCC
DNA 2: TGGTGGCTACGACGGGATT
B26: GCAGGCC (DNA:RNA)
RNA: B10 RNA with U25G, C27A, C28G, U30C, U31C
DNA 1: CAATCTGAATTCCGGTCTCCC
DNA 2: TGGTGGCTACGACGGGATT
B27: AGCGAAU (DNA:RNA)
RNA: B10 RNA with U25A, C26G, C28G, G29A, U30A
DNA 1: CAATCTGAATTCCGGTCTCCC
DNA 2: TGGTGGCTACGACGGGATT
B28: CUCUGGU (DNA:RNA)
RNA: B10 RNA with U25C, C26U, C28U, U30G
DNA 1: CAATCTGAATTCCGGTCTCCC
DNA 2: TGGTGGCTACGACGGGATT
B29: CUCUGCG (DNA:RNA)
RNA: B10 RNA with U25C, C26U, C28U, U30C, U31G
DNA 1: CAATCTGAATTCCGGTCTCCC
DNA 2: TGGTGGCTACGACGGGATT
B30: CAAGUCA (DNA:RNA)
RNA: B1 RNA with A25C, G27A, A28G, G30C, G31A
DNA 1: CAATCTGAATTCCGGTCTCCC
DNA 2: TGGTGGCTACGACGGGATT
B31: GCUGUGA (DNA:RNA)
RNA: B1 RNA with A25G, A26C, G27U, A28G, G31A
DNA 1: CAATCTGAATTCCGGTCTCCC
DNA 2: TGGTGGCTACGACGGGATT

Each binder was assayed against T1, RBFOX1 RRM RbFoxmut (Fox-RRM*) (assay: EMSA; HiTS-Eq, 1 nM pool, 10 min; buffer printed only for the single-RNA assays: 10 mM Tris pH 7.5, 150 mM NaCl, 3.4 mM EDTA, 0.001% NP-40, 30 C). Conditions: tags: His6 N-terminal (pET28a); label: 5' 32P.
In short: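 Purified RbFox RRM, wild type or mutant, was incubated for 10 min in 50 µL with 1 nM of a 5′-radiolabelled RNA pool carrying 7 randomized nucleotides, whose flanks were annealed to DNA oligonucleotides, over a series of increasing protein concentrations. Unbound RNA was resolved on 8% native PAGE, cut out, reverse-transcribed, barcoded by PCR and sequenced on an Illumina HiSeq 2500. Relative association constants were derived from changes in read counts for each RNA species versus the control reaction and normalised to the cognate motif.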
For B1, the binding signal was 0.0985 KA relative to UGCAUGU. In the case of B2, the binding signal is reported as 0.141 KA relative to UGCAUGU. B3 was tested, and the binding signal was 0.0922 KA relative to UGCAUGU. In the case of B4, the binding signal is reported as 0.108 KA relative to UGCAUGU. With B5 the binding signal was 0.115 KA relative to UGCAUGU. For B6, the binding signal was 0.063 KA relative to UGCAUGU. With B7 the binding signal was 0.363 KA relative to UGCAUGU. B8 was tested, and the binding signal was 0.114 KA relative to UGCAUGU. In the case of B9, the binding signal is reported as 0.252 KA relative to UGCAUGU. B10 was tested, and the binding signal was 0.098 KA relative to UGCAUGU. With B11 the binding signal was 0.0736 KA relative to UGCAUGU. In the case of B12, the binding signal is reported as 0.259 KA relative to UGCAUGU. B13 was tested, and the binding signal was 0.0898 KA relative to UGCAUGU. In the case of B14, the binding signal is reported as 0.24 KA relative to UGCAUGU. B15 was tested, and the binding signal was 0.0862 KA relative to UGCAUGU. B16 was tested, and the binding signal was 0.0946 KA relative to UGCAUGU. With B17 the binding signal was 0.0665 KA relative to UGCAUGU. For B18, the binding signal was 0.104 KA relative to UGCAUGU. For B19, the binding signal was 0.0817 KA relative to UGCAUGU. In the case of B20, the binding signal is reported as 0.0918 KA relative to UGCAUGU. With B21 the binding signal was 0.0991 KA relative to UGCAUGU. B22 was tested, and the binding signal was 0.191 KA relative to UGCAUGU. B23 was tested, and the binding signal was 0.106 KA relative to UGCAUGU. With B24 the binding signal was 0.327 KA relative to UGCAUGU. In the case of B25, the binding signal is reported as 0.117 KA relative to UGCAUGU. With B26 the binding signal was 0.187 KA relative to UGCAUGU. In the case of B27, the binding signal is reported as 0.124 KA relative to UGCAUGU. In the case of B28, the binding signal is reported as 0.088 KA relative to UGCAUGU. In the case of B29, the binding signal is reported as 0.121 KA relative to UGCAUGU. In the case of B30, the binding signal is reported as 0.0876 KA relative to UGCAUGU. For B31, the binding signal was 0.117 KA relative to UGCAUGU.
